In PubChem BioAssay AID686979 (National Center for Advancing Translational Sciences (NCATS), 2013):
Where “and” joins values, the source holds several entries; their conditions need not be identical. Identical values can stand only once. Out of some 420,000 compounds screened, about 50,000 (12%) were called active. The inconclusive results got no clear call from the source; some entries with a clear call stand among them for comparison. Calls come from the whole dose curve; as a rule, active = well fitted inhibition curve with a large enough effect; inconclusive = small, poorly fitted or top-dose-only effect; inactive = flat fitted curve, though single readings scatter. Potencies of inconclusive entries are doubtful fits and often do not repeat.

Experiment: qHTS for Inhibitors of human tyrosyl-DNA phosphodiesterase 1 (TDP1): qHTS in cells in presence of CPT; note: nearly all actives have a fitted effect of over 55% in size
Details: chicken DT40 Tdp1-/-;hTDP1 cells + 20 nM CPT, ATP luminescence, 48 h; activity change, negative = growth inhibition: at 46.2 µM (top of the series) unless noted
Procedure, shortened: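 Cell growth measured by CellTiter-Glo luminescence after a minimum 48 h, 37 C compound exposure with 20 nM CPT in Tdp1-knockout DT40 cells stably expressing hTDP1, seeded 400/well; qHTS titration format.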
% is set by controls: 0 for no effect and ±100 for the full control effect; potency is the fitted concentration of half-maximal effect; tags give direction and shape of the fitted curve.

SMILES | Potency | activity change, negative = growth inhibition
CCCCCCSc1ccc([C@H]2N[C@@](CC(C)C)(C(=O)OC)[C@H]3C(=O)N(C)C(=O)[C@@H]23)cc1 | inconclusive: 29.1 µM [inhibitor, single point] | 
C=CCNc1nc(C(F)(F)F)nc2c1nnn2Cc1ccccc1Cl | inconclusive: 16.4 µM [inhibitor, single point] | 
CCC1(c2cccc(Cl)c2)NC(=O)N(Cc2cc(C(=O)OC)c(C)o2)C1=O (centres undefined) | active: 25.9 µM | 
O=C(CCC1CCCN(C(=O)Cc2ccc(F)cc2)C1)N1CCN(c2ccccn2)CC1 (centres undefined) | inconclusive: 1.64 µM [inhibitor, partial curve, poor fit] | 
Cc1ccnc(NC(=O)CCC2COc3ccccc3O2)c1 (centres undefined) | inactive | 
CCc1ccc(CNc2ccc3c(c2)ncn3C)cc1 | inconclusive: 7.31 µM [inhibitor, partial curve, poor fit] | 
COc1cc(OC)cc(-c2c(-c3cccs3)c3cc(-c4ccc5c(c4)OCCO5)ccc3n2C)c1 | inconclusive: 10.3 µM [inhibitor, partial curve] | 
Nc1ncccc1OCc1cccc(C(F)(F)F)c1 | inactive | 
COc1ccc(N(CC(=O)NCCc2cccc(C)c2)S(=O)(=O)c2c(C)noc2C)cc1 | inactive and inconclusive: 20.6 µM [inhibitor, single point] | 
COc1ccc(-n2c(C)cc(C(=O)CN3CCCCC3)c2C)cc1 |  | inconclusive: -30.6% [inhibitor]
Cc1ccc(NC(=O)Nc2ccno2)cc1 | inconclusive: 25.9 µM [inhibitor, single point] | 
CC1CCN(CC(=O)Nc2nc(-c3ccccc3)cs2)CC1 | inconclusive: 23.1 µM [inhibitor, single point] | 
N#C/C(=C(/O)c1ccc([N+](=O)[O-])o1)c1nc2ccccc2[nH]1 | active: 11.6 µM | 
Nc1c(C(=O)NC2CCCC2)c2nc3ccccc3nc2n1/N=C/c1ccco1 | inactive | 
COc1cccc(NC(=O)CN(C)C(=O)c2ccc(COc3ccccc3)o2)c1 | inconclusive: 23.1 µM [inhibitor, single point] | 
COc1ccc(C)cc1NC(=O)C(=O)NCC1(c2ccccc2)CCCC1 | inconclusive: 20.6 µM [inhibitor, partial curve] | 
CN(CCc1ccc(Cl)c(Cl)c1)CCN1CCCC1 | active: 9.44 µM and active: 8.2 µM | 
O=C(CN1CCN(S(=O)(=O)c2ccccc2)CC1)NC(=O)NCc1ccco1 | inactive | 
CCCC(c1nnnn1Cc1ccco1)N1CCN(c2cc(Cl)ccc2C)CC1 (centres undefined) | inconclusive: 17.8 µM [inhibitor, single point] | 
C[C@H]1CN([C@@H](C)CO)C(=O)CCCn2nncc2CO[C@H]1CN(C)C(=O)C1CC1 | inactive | 
O=S(=O)(c1cc(Cl)cc(Cl)c1)N1CCC2CC1c1cc(Cl)ccc12 (centres undefined) | inconclusive: 20.6 µM [inhibitor, single point] | 
COCn1c(C(O)c2ccccc2)cc2ccccc21 (centres undefined) | inconclusive: 32.6 µM [inhibitor, single point] | 
CC(=O)Nc1cc(-c2ccc(C(=O)N3CCOCC3)cc2)cn2c(-c3cccc(C(F)(F)F)c3)cnc12 | inconclusive: 23.1 µM [inhibitor, single point] | 
CC(C)(C)c1ccc(C2NC(=O)c3n[nH]c(-c4cccs4)c32)cc1 (centres undefined) | inconclusive: 18.4 µM [inhibitor, single point] | 
Cc1cccn2c(=O)c3cc(C(=O)NCCc4ccccc4)c(=N)n(CCCn4ccnc4)c3nc12 | inconclusive: 29.1 µM [inhibitor, single point] | 

SMILES | Potency | activity change, negative = growth inhibition
O=C(COc1ccccc1)NC(=S)Nc1cccc2c(O)cccc12 | inconclusive: 29.1 µM [inhibitor, single point] | 
COc1ccccc1/C=C/c1nc2ccccc2s1 | inconclusive: 28.2 µM [inhibitor, single point] | 
CCc1ccc(CN(C)Cc2c(C(=O)N3CCOCC3)nc3c(C)cccn23)nc1 | inconclusive: 23.1 µM [inhibitor, single point] | 
O=C1c2cccc3c(O)ccc(c23)C(=O)N1Cc1ccccc1 | inconclusive: 14.6 µM [inhibitor, single point] | 
CCN(CC)S(=O)(=O)c1ccc2c(c1)N(CC(=O)N(C)Cc1ccccc1)C(=O)CO2 | inconclusive: 18.4 µM [inhibitor, partial curve] | 
CCN(Cc1ccccc1)C(=O)/C=C/c1ccccc1[N+](=O)[O-] | active: 16.4 µM | 
O=C(CC(=O)c1ccccc1O)c1cccc(F)c1 | active: 6.51 µM | 
CCCCOc1ccc(CN(CCO)CCO)cc1[N+](=O)[O-] | active: 18.4 µM | 
Cc1[nH]c2ccccc2c1C(=O)CNc1nccs1 | inconclusive: 29.1 µM [inhibitor, single point] | 
Cc1ccc(N=Cc2cc(Cc3ccccc3Cl)cc([N+](=O)[O-])c2O)c(O)c1 | inconclusive: 14.6 µM [inhibitor, single point] | 
CC(C)NC(=O)c1cc(C2CCCCN2S(=O)(=O)c2cccs2)on1 (centres undefined) | inactive | 
O=C(CCN1C(=O)/C(=C/c2ccc(Cl)cc2)SC1=S)Nc1cccnc1 | active: 29.1 µM | 
CCOc1cc2[nH]c(=O)n(CC3CCC(C(=O)NCCC(C)C)CC3)c(=O)c2cc1OCC (centres undefined) | inactive | 
O=C1CC(c2ccccc2)CC2=C1C(c1ccco1)n1nc(C(F)(F)F)nc1N2 (centres undefined) | inconclusive: 17.8 µM [inhibitor, single point] | 
COc1ccc(C(=O)CN(CCC(=O)O)S(=O)(=O)c2ccc([N+](=O)[O-])cc2)cc1 | inactive | 
COc1ccccc1N1CCN(c2ncnc3c2nc2n3CCCC2)CC1 | active: 18.4 µM | 
COC(=O)c1ccc2nc(-c3ccc(Cl)cc3)c(Cc3ccccc3OC)n2c1 | inactive | 
CC(C)NC(=O)CCn1nc(-c2ccc(Cl)cc2)c2ccccc2c1=O | inconclusive: 29.1 µM [inhibitor, single point] | 
Cc1cccc(C(=O)OCC(=O)Nc2nnc(-c3ccccc3)o2)c1O | inactive | 
COc1ccc(-c2[nH]c3c(c2-c2c(-n4cccc4)n(C)c(=O)n(C)c2=O)c(=O)n(C)c(=O)n3C)cc1 | inactive | 
CCOC(=O)N1CCN(C(=O)COc2ccc(Cl)cc2)CC1 | inactive | 
Cc1ccc(N(C(=O)CNC(=O)c2ccco2)C(C(=O)NC2CCCCC2)c2cccnc2)cc1 (centres undefined) | inactive | 
Cn1cccc1/C=C1\SC(=Nc2ccccc2)NC1=O | active: 2.91 µM | 
O=C(CNC(=O)c1ccc(Cl)cc1)OCc1cc(=O)n2ccsc2n1 | inactive | 
O=c1[nH]c2ccccc2nc1CCc1ccccc1 | inactive | 

SMILES | Potency | activity change, negative = growth inhibition
CCCOc1cccc(C(=O)NCCNC(=O)c2ccc(C)nc2)c1 | inactive | 
COc1ccc([C@H]2CC(=O)C=C(c3cccc(CO)c3)C2)cc1 | inconclusive: 25.9 µM [inhibitor, single point] | 
C/C(=N\NC(=S)Nc1cc(S(=O)(=O)N2CCOCC2)ccc1Cl)c1ccccc1F | active: 3.26 µM | 
N#C/C(=C\c1cc(O)c(O)c(O)c1)C(N)=O | inconclusive: 8.2 µM [inhibitor, single point] | 
CCOC(=O)N1CCN(C(=O)C2CC(=O)N(c3ccc(C)cc3)C2)CC1 (centres undefined) | inactive | 
COC(=O)C[C@@H]1CC[C@@H](NC(=O)C2CCC2)[C@@H](CO)O1 | inactive | 
COc1ccc(O)c(C2Nc3ccccc3-n3c(-c4ccccc4)c4c(=O)n(C)c(=O)n(C)c4c32)c1 (centres undefined) | active: 9.2 µM | 
O=S(=O)(c1ccccc1)N1CCN(Cc2c(O)ccc3ccccc23)CC1 | inactive | 
CCN1/C(=C2\C(=O)N(C)C(=S)N2C)C=Cc2cc(C)ccc21 | inconclusive: 18.4 µM [inhibitor, single point] | 
COc1cccc(CNC(=O)C(NS(=O)(=O)c2ccc3c(c2)oc(=O)n3C)C(C)C)c1 (centres undefined) | inactive | 
O=C(CSc1nc(=O)n2ccccc2n1)Nc1ccc2c(c1)OCCO2 | inconclusive: 23.1 µM [inhibitor, partial curve, poor fit] | 
COc1ccc(CN(CCC(c2ccccc2)c2ccc(OC(C)C)cc2)C(=O)CCl)cc1OC (centres undefined) | active: 2.06 µM | 
CCOc1ccccc1N1C(=O)CC(Sc2n[nH]c(-c3ccccc3)n2)C1=O (centres undefined) | active: 0.651 µM | 
Cn1c(=O)[nH]c(=O)c2c1nc(CN(Cc1ccccc1)Cc1ccccc1)n2CCN1CCOCC1 | inactive | 
CS(=O)(=O)N1CCC(Oc2ccccc2C(=O)N2CCN(CC3CC3)CC2)CC1 | inactive | 
Cc1ccc(C(C)(C)C)cc1S(=O)(=O)Nc1nc2ccccc2nc1Cl | inconclusive: 25.9 µM [inhibitor, single point] | 
CCCN(C)CCCOc1cc2nc(N3CCCN(C)CC3)nc(NC3CCN(C)CC3)c2cc1OC | active: 8.91 µM | 
Cc1ccc(CN2CCNC(=O)C2CC(=O)N(C)Cc2cnccn2)cc1 (centres undefined) | inactive | 
CC(=O)c1cccc(NC(=O)CSc2ccc(-c3ccccn3)nn2)c1 | inconclusive: 23.1 µM [inhibitor, single point] | 
COc1ccc([C@H]2CC(=O)C=C(c3c(C)cc(C)cc3C)C2)cc1 | inconclusive: 29.1 µM [inhibitor, single point] | 
COc1ccc(S(=O)(=O)Nc2cccc(-c3ccc(N4CCCCCC4)nn3)c2)cc1 | active: 16.4 µM | 
Cc1c(C(=O)OCC2CCCCC2)[nH]c2c1C(=O)CC(c1ccc(Cl)cc1)C2 (centres undefined) | inactive | 
Cc1nc(NC(=O)c2cccc(Cl)c2)sc1C(=O)N1CCCCC1 | active: 18.4 µM | 
CCOc1cc(NC(=S)NCCOC)c(OCC)cc1NC(=O)c1ccco1 | inactive | 
